Data on 95 compounds can be found in PubChem BioAssay AID485344 (National Center for Advancing Translational Sciences (NCATS), 2010).

Among all 340,000 compounds or so, about 6,900 (2%) were called active. No stated cut-off is given here; in the data, active means inhibition above about 30%; inactive means below that, where a call was filed. Only a part is listed here, and it is no random draw. Where no call is shown, the source filed none.

In the assay the target is D(2) dopamine receptor (Homo sapiens) (UniProt P14416). Kind of assay: HTS Assay for Allosteric Antagonists of the Human D2 Dopamine Receptor: Primary Screen for Antagonists. Further: 0% is about no effect. As to conditions: HEK293 TREx D2 cells, calcium flux, dopamine EC80; at 10 µM; stronger effect = higher value. The essentials: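 Overnight-induced (tetracycline, 30 C) HEK293 T-REx cells carrying force-coupled D2 receive a no-wash calcium dye, then compound, then EC80 dopamine at 180 s; signals are read kinetically throughout.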
UniProt P14416, sequence (P14416 whole entry, looked up): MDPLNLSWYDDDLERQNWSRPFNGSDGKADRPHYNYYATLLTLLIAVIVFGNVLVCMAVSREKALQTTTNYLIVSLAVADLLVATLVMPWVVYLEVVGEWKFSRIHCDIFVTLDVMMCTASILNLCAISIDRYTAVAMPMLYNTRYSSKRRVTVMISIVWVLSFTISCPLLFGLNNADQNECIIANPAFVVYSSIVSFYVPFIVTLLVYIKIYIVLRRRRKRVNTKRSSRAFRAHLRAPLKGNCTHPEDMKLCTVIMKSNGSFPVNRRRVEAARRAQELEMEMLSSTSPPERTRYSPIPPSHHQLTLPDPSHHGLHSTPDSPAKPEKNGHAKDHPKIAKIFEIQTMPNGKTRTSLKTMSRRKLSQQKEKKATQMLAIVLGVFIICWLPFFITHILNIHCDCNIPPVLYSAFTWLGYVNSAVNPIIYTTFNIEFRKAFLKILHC
Background: Calcium flux is commonly read through the fluorescence of an indicator in the cells.
As a reminder, the inhibition is the drop in the measured response relative to a control, in per cent. `CC(=O)N1CCc2cc(S(=O)(=O)NC(Cc3ccccc3)C(=O)Nc3ccc(C)cc3C)ccc21` (stereo not given): the inhibition is -23.9%.
Next, `O=C(CCCN1CCC(c2ccccc2)C1)c1ccc2c(c1)OCCO2` (stereo not given): active: 79.1%; `COc1ccc(NC(=O)CN2C(=O)C(c3ccc(C)cc3)=NC23CCCCCC3)cc1Cl`: -10.9%.
Turning to `Cc1ccc(/C=C/c2nc3sc(C(=O)O)c(C)c3c(=O)[nH]2)cc1[N+](=O)[O-]`, the inhibition was active: 32.7%.
`Cc1ccc(NC(=O)c2ccc(CNS(=O)(=O)c3ccc4c(c3)C(C)(C)C(=O)N4C)cc2)cc1`: the inhibition is 3.94%.
Turning to `COc1cccc(-c2nc(SCC(=O)NCC3CCCO3)c(-c3ccc(Cl)cc3)[nH]2)c1` (stereo not given), the inhibition was -11.7%.
Next, `CN(C)CCNC(=O)C(=O)NCC(c1cccnc1)N1CCN(c2ccccc2)CC1` (stereo not given): 5.46%; `O=C(Cc1ccccc1)NCC(=O)N1CCCC1`: active: 34.6%; `CCCN(C(=O)Cn1ncc2c([nH]c3ccccc32)c1=O)c1ccc(F)cc1`: -10.2%.
In the case of `COc1ccc(CCNC(=O)CCn2c(=O)c3ccccc3n(CC(=O)Nc3cc(Cl)ccc3C)c2=O)cc1OC`, the inhibition was -2.67%.
Next, `CCOC(=O)C1CCCN(C(=O)c2ccc3c(c2)N(Cc2ccccc2F)C(=O)c2ccccc2S3=O)C1` (stereo not given): -5.33%; `CC(=O)c1cccc(NC(=O)CCCSc2nc(-c3ccco3)cc(C(F)(F)F)n2)c1`: 0.468%.
Next, `CCc1ccccc1NC(=O)Nc1cc(C(=O)NCc2ccccc2OC)ccc1N1CCCC1`: -4.94%; `CCn1cc2nc(SCc3cccc(C)c3)n(CCc3ccccc3)c(=O)c2n1`: -5.89%; `COc1ccc(C(=O)Nc2c3c(nn2C(C)(C)C)CS(=O)(=O)C3)cc1OC`: active: 35.1%.
Next, `Cc1nc2c(-c3ccccc3)c(C)nn2c(C)c1CCC(=O)NCc1ccccc1`: 0.587%; `Cc1ccc(S(=O)(=O)n2nc(-c3ccco3)nc2NCc2ccc(N(C)C)cc2)cc1`: -18.1%; `CCc1ccc2oc(-c3ccc(C)c(NC(=O)c4ccc(C#N)cc4F)c3)nc2c1`: -1.86%.
With `CCOC(=O)c1ccc(NC(=O)CCC(=O)N2CCSc3ccccc32)cc1`, the inhibition is -5.65%.
Next, `O=C(Cn1cc(S(=O)(=O)c2ccccc2)c(=O)c2cc3c(cc21)OCO3)Nc1ccccc1`: 11.4%.
Next, `Cn1cc(S(=O)(=O)N2CCCCC2)cc1C(=O)Nc1ccc(OC(F)(F)F)cc1`: 17.6%; `O=C(NCCCc1ccccc1)c1nn(-c2ccccc2)nc1CO`: 7.49%.
Next, `Cc1noc(-c2ccc(-c3noc(-c4cccc(Cl)c4)n3)cc2)n1`: -10.1%; `Cc1ccc(S(=O)(=O)C(CNC(=O)c2ccc(C(F)(F)F)cc2)c2ccco2)cc1` (stereo not given): 24%; `CCc1ccc2occ(CC(=O)Nc3sc4c(c3C(=O)NCCOC)CCCC4)c2c1`: 1.33%.
With `Cc1nc2nc(SCC(=O)NC3CCC(C)CC3)nn2c(C)c1Cc1ccccc1Cl` (stereo not given), the inhibition was -13.2%.
Next, `Cc1[nH]c2ccc(C(=O)NCCCN(C)C3CCCCC3)cc2c1C`: active: 34%; `COc1ccc(OC)c(NC(=O)c2c(NCc3ccc(N(C)C)cc3)sc3c2CCCC3)c1`: 3.56%; `COc1ccc(NC(=O)c2oc3ccccc3c2NC(=O)C23CC4CC(CC(C4)C2)C3)cc1`: -8.52%.
Consider `O=C(CCCc1ccccc1)Nc1ccnn1C1CCN(Cc2ccccc2)CC1`, for which the inhibition was active: 40.7%.
Next, `COC(=O)[C@@]1(Cc2ccc(OC)cc2)[C@@H]2C(=CC(=O)[C@H]2CC(=O)C(=O)N2CCCC2)CN1C(=O)c1ccccc1`: active: 38%.
Next, `O=C(NCc1ccccc1Cl)c1ccc(NC(=O)N2CCSc3ccccc32)cc1`: 1.16%; `COc1ccc(S(=O)(=O)N(CC(=O)Nc2ccc3c(c2)OCO3)c2ccc(C)cc2)cc1`: -15.8%; `Cc1ccc(OCc2cc(=O)n3c4c(sc3n2)CCCC4)cc1C`: 16.9%.
Next, `COc1cc(OC)cc(C(=O)Nc2ccc3c(c2)n(C)c(=O)c(=O)n3C)c1`: -1.19%; `Cc1cc(NCc2ccc(Cl)cc2)n2cnnc2n1`: -15.9%.
Consider `CCc1ccc(NS(=O)(=O)c2c(-c3ccccc3)csc2C(=O)OC)cc1`, for which the inhibition is -2.85%.
Next, `O=C(Nc1nnc(S(=O)(=O)N2CCCCCC2)s1)c1ccccc1`: -4.05%.
As for `COc1ccccc1N(CC(=O)Nc1cc(C)cc(C)c1)S(C)(=O)=O`, the inhibition was -2.1%.
For `Cc1cccc(-c2noc(-c3ccc(NCc4cccnc4)c([N+](=O)[O-])c3)n2)c1`, the inhibition is -28.6%.
For the compound `O=C(Nc1ccc(F)cc1)c1ccc2c(c1)NC(=O)c1ccccc1S2`, the inhibition worked out at 3.83%.
For the compound `CCc1cccc(NC(=O)Cn2ccn3nc(-c4ccc(OC)c(OC)c4)cc3c2=O)c1`, the inhibition was 20.8%.
Next, `Nc1nonc1-c1nc2ccccc2n1CC(=O)Nc1cccc(Cl)c1Cl`: -3.63%; `CC1=C(C(=O)Nc2ccccc2)C(c2ccccn2)n2nc(SCc3ccccc3Cl)nc2N1` (stereo not given): -2.4%.
Consider `Cc1ccccc1NC(=O)Cn1cc(S(=O)(=O)N2CCCC2)c(S(=O)(=O)N2CCCC2)c1`, for which the inhibition was -11.5%.
For the compound `CCOc1ccc(NC(=O)c2nnn(-c3ccc(F)c(Cl)c3)c2C)cc1`, the inhibition is -5.22%.
As for `CCC(=O)Nc1cccc(OCc2cc(=O)n3cc(C)ccc3n2)c1`, the inhibition was found to be 0.0731%.
Next, `COC(=O)c1ccc(Oc2nc3c(c(=O)n(C)c(=O)n3C)n2Cc2ccc(Cl)c(Cl)c2)cc1`: 9.11%; `Cc1nnc2ccc(-c3ccc(NS(C)(=O)=O)cc3)nn12`: active: 32.6%.
Turning to `CC(=O)c1ccc(N2C(=O)Nc3ccccc3S2(=O)=O)cc1`, the inhibition was -13.8%.
Next, `CC(C)Sc1nc2sc3c(c2c(=O)n1-c1ccccc1)CCCC3`: -12%; `CCn1c(=O)c2ccccc2n(CC(=O)NC2CCCCC2)c1=O`: active: 41.7%.
As to `Cc1ccc(CSc2cn(CCNC(=O)c3cccs3)c3ccccc23)cc1`, the inhibition was -7.6%.
Next, `O=C(Nc1ccc(F)c(Cl)c1)C1CCN(S(=O)(=O)c2ccc3c(c2)CCCN3C(=O)C2CCC2)CC1`: -16.2%.
With `Cc1ccc(N2CC(NC(=O)c3ccccc3Br)CC2=O)cc1` (stereo not given), the inhibition is -7.46%.
`O=C(Cn1c(SCC(=O)Nc2ccc(F)cc2)nc2ccccc21)NCc1ccc(Cl)cc1`: the inhibition amounted to 14.1%.
Next, `Nc1ncc(S(=O)(=O)Nc2ccc(OC(F)(F)F)cc2)cn1`: 0.858%.
As to `CCOC(=O)c1ccccc1NC(=O)Cn1c(=O)n(-c2ccc(CC)cc2)c(=O)c2c(C)c(C(=O)N(C)C)sc21`, the inhibition worked out at 21%.
For `CCOc1ccccc1CNC(=O)c1ccc2c(c1)nc1n2CCC(C)C1` (stereo not given), the inhibition came out at 11.8%.
Consider `C=CCOc1ccccc1CN1CCC(CO)(CCOc2ccccc2)CC1`, for which the inhibition is active: 63.8%.
Next, `CCN(CC)c1ccc(CNS(=O)(=O)c2cc3c(cc2C)NC(=O)CO3)cc1`: 4.17%; `Cc1ccc(S(=O)(=O)N2CCOCC2)cc1C(=O)OC1CCOC1=O` (stereo not given): active: 40.9%; `COc1ccc(NC(=O)CSc2ncc3c(n2)-c2ccccc2N(C)S3(=O)=O)cc1Cl`: 2.9%.
Regarding `CCOc1ccc(NC(=O)Nc2c[nH]c(=O)[nH]c2=O)cc1`, the inhibition is -3.42%.
For the compound `Cn1c(SCc2ccccc2Cl)nc(=O)c2c1NC(=O)CC2c1cc(F)ccc1F` (stereo not given), the inhibition came out at 0.0538%.
In the case of `CCOc1ccc(C(=O)NCCc2sc(-c3ccc(F)cc3)nc2C)cc1`, the inhibition is 4.53%.
Take `CCOC(=O)c1ccc(NC(=O)CN2C(=O)c3cccnc3Sc3ccccc32)cc1`: the inhibition is 7.64%.
Next, `CC1(OC(=O)C2CCCC2)C(=O)C=C2C=C(c3ccsc3)N(c3ccccc3)C=C2C1=O` (stereo not given): active: 36%.
Next, `COc1ccc(Nc2ncc(C(=O)N3CCN(c4ccccc4OC)CC3)c3ccccc23)cc1`: 16.1%; `Cc1ccccc1Cn1c(=O)n(CCCCCC(=O)NCc2ccc3c(c2)OCO3)c(=O)c2sccc21`: -8.7%; `O=C(Cn1ncc2c3ccccc3n(Cc3cccc(Cl)c3)c2c1=O)NCCC1=CCCCC1`: 3.71%.
For the compound `COc1ccc(-c2nc3cc(NC(=O)COc4ccc(C)c(C)c4)ccc3o2)cc1`, the inhibition is -2.27%.
Next, `Cc1cc(=O)c2cc(C(=O)Nc3cccc(C)c3C)ccc2[nH]1`: 22.8%.
Next, `CCOc1ccc(CNC(=O)c2ccc(NC(=O)N3CCSc4ncccc43)cc2)cc1`: 2.1%; `Cc1ccc(NC(=O)c2cccc(NC(=O)N3CCSc4ncccc43)c2)cc1F`: -9.45%.
Next, `CCCN1C(=O)c2oc3cc(C)cc(C)c3c(=O)c2C1c1ccc(F)cc1` (stereo not given): -19.9%; `CCN(CC)CCCNC(=O)CCc1c(C)nc2c(c1C)c(=O)n(C)c(=O)n2C`: -14.2%.
Take `Cc1ccc(C)c(NC(=O)c2cnc3sc(N4CCOCC4)nn3c2=O)c1`: the inhibition is 0.497%.
Next, `COc1ccc(-c2cc(C(F)(F)F)nc(SCC(=O)Nc3ccc(O)cc3)n2)cc1OC`: -1.17%; `Cc1c(NS(=O)(=O)c2ccc(Cl)cc2)c(=O)n(-c2ccccc2)n1C`: -1.79%; `Cc1nc2c(c(C)c1CCC(=O)Nc1ccc(F)cc1)c(=O)n(C)c(=O)n2C`: 5.08%.
Next, `COc1ccccc1CCNC(=O)C(=O)NCC(c1cccnc1)N1CCN(c2ccccc2)CC1` (stereo not given): 24.5%; `COc1ccc(C2=NN(CCC(=O)NCCc3ccccc3)C(=O)CC2)cc1`: 3.45%; `CCc1cccc(-n2nnc(S(=O)(=O)c3ccc(OC)cc3)c2C)c1`: 19.9%.
Next, `Cc1cccc(C)c1NC(=O)C1CCCN1S(=O)(=O)c1cccc2nsnc12` (stereo not given): 12.6%; `COc1ccc(NC(=O)Cn2nnc(-c3nc(-c4ccncc4)no3)c2N)cc1OC`: -1.41%; `Cc1ccc(Cn2cc(CCC(=O)NCC(C)c3ccccc3)c3ccccc32)cc1` (stereo not given): 3.65%.
Take `COc1ccc2cc3cc(C(=O)NCCN4CCN(c5ccccc5F)CC4)oc3nc2c1`: the inhibition was active: 38%.
Next, `CCCNc1ncnc2c1c(-c1ccccc1)cn2-c1ccccc1`: -0.407%; `COc1ccc(-c2nsc(NC(=O)c3oc4ccccc4c3C)n2)cc1`: 25.6%.
Next, `Cc1coc2c(C)c3oc(=O)c(CCC(=O)N4CCCCC4)c(C)c3cc12`: -16.5%.
In the case of `O=C1CCC(C(=O)OC(C(=O)Nc2cc(Cl)cc(Cl)c2)c2ccccc2)=NN1` (stereo not given), the inhibition is active: 33.5%.
With `O=C(Cn1ccc2cc(S(=O)(=O)N3CCCCCC3)ccc21)NCc1cccc(Cl)c1`, the inhibition is -1.38%.
`CN(C)c1ccc(CNC(=O)CCCN2C(=O)CCn3nc(-c4cn(C)c5ccccc45)cc32)cc1`: the inhibition was -23.7%.
Turning to `N#Cc1ccccc1OCC(=O)N1CCN(c2ccccc2)CC1`, the inhibition came out at 14.6%.
